Assay results from the supplement of paper PMC12889115.
The other results are listed elsewhere or left out. Cut-off read from the data, not from the text of the source: active = 25% or less and inactive = the rest. Single values are uncertain, as repeats are few or missing.

test system: Salmonella enterica serovar Typhimurium SL1344; experiment: intramacrophage bacterial GFP load (SAFIRE), percent of DMSO control (% of DMSO); higher = more intracellular bacteria (less inhibition); conditions: 25 µM; system: infected RAW 264.7 macrophages
Description: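 Secondary screen of the 553 primary hits at 25 µM. (i) S. Typhimurium SL1344 grown in Mueller-Hinton broth with 0.5 µg/mL polymyxin B, OD600 read after 18 h. (ii) SAFIRE assay: RAW 264.7 macrophages infected with S. Typhimurium sifB::gfp (MOI 30); compound added 2 h post-infection; cells fixed at 18 h; GFP-positive pixel fraction per macrophage imaged by confocal microscopy and expressed as % of DMSO control.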
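Note: compounds tested were the hits of an earlier 50 µM broth growth screen of a drug-like diversity library run with polymyxin B.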

Row | SMILES | intramacrophage bacterial GFP load
1 | COc1ccccc1C(=O)C1CCCN(C(=O)c2csc(-c3cccs3)n2)C1 (stereo not given) | inactive: 78.4
2 | Cc1nonc1CN(C)C(=O)C1CCCN(c2nc(-c3ccccc3)nc3c2CCC3)C1 (stereo not given) | inactive: 113
3 | CCS(=O)(=O)Nc1cc(C(=O)N(C)C(C)c2cccs2)c2c(c1)nc(-c1ccccc1)n2C (stereo not given) | inactive: 178
4 | Cc1ccc(-n2cccn2)c([C@@H]2C[C@H]3CN(C4CCCC4)C(=O)[C@]34CCCN24)c1 | inactive: 60.7
5 | Cc1ccc(-c2nnc(CCC(=O)NCCc3cccc4ccccc34)o2)s1 | inactive: 64.5
6 | CCOC(=O)C1(C/C=C/c2ccccc2)CCCN(Cc2nccs2)C1 (stereo not given) | inactive: 28.2
7 | Cc1noc(-c2ccc(NCC[C@@H]3C[C@@H]4C=C[C@H]3C4)nc2)n1 | inactive: 112
8 | C=CCC(=O)N1CCCC1C(=O)Nc1ccc(-c2cccc(OC)c2)cc1 (stereo not given) | inactive: 138
9 | COc1ccc(/C=C/C(=O)N(Cc2ccncc2)Cc2cccc(OCCc3ccc(F)cc3)c2)cc1 | inactive: 56.3
10 | COc1ccc(CN(Cc2ccncc2)C(=O)c2sccc2C)cc1OCc1ccccc1F | inactive: 125
11 | C#Cc1cccc(C(=O)N2CCc3onc(-c4cccc(F)c4)c3C2)c1 | inactive: 140
12 | O=C(c1cn2ccsc2n1)N(Cc1ccncc1)Cc1cccc(OCCc2ccc(F)cc2)c1 | inactive: 127
13 | CCOC(=O)C1(CCc2ccccc2)CCCN(Cc2cnc(SC)nc2)C1 (stereo not given) | active: 22.9
14 | O=C(CCc1nnc(-c2ccc(-c3ccccc3)cc2)o1)N1CCCCCCC1 | inactive: 102
15 | CCN(CC)c1ncccc1CNC(=O)c1cccc(Cl)c1 | inactive: 55.6
16 | CCN(Cc1ccccc1)c1nc(CNC(=O)Cn2nc(C)c3ccccc3c2=O)nc2ccccc12 | inactive: 45.3
17 | Cc1cc(C(=O)N2CCc3c([nH]c4ccccc34)C2c2ccc(F)cc2)no1 (stereo not given) | inactive: 104
18 | CCn1ccnc1CN(C)C(=O)CC(c1ccccc1)c1ccc(Cl)cc1 (stereo not given) | active: 18.9
19 | Cc1nonc1CN(C)C(=O)C1(N2CCCCC2)Cc2ccccc2C1 | inactive: 32.9
20 | Cc1nn(C)cc1CN1CCOc2ccc(C3=Cc4ccccc4C3)cc2C1 | active: 6.5
